# Data reported in the antibiotic and cytotoxicity screens of Wong et al. (2023).
# The list shows a part of the results.
# Legend:
# HSkMC = human skeletal muscle cells; assay: cytotoxicity call (relative viability < 0.9); details: 10 µM
# HepG2 = assay: cytotoxicity call (relative viability < 0.9); details: 10 µM
# S. aureus RN4220 = assay: growth inhibition call (relative growth <= 0.2); details: 50 µM
Structure (SMILES),cytotoxicity call (HSkMC),cytotoxicity call (HepG2),growth inhibition call (S. aureus RN4220)
COc1cccc(S(=O)(=O)N(C)C[C@@H]2Oc3cc(Br)ccc3S(=O)(=O)N([C@@H](C)CO)C[C@@H]2C)c1,inactive,inactive,inactive
Cc1[nH]c(SCCC(=O)O)nc(=O)c1C,inactive,inactive,inactive
CC(=O)N1CCC[C@@H]1C(=O)O,inactive,inactive,inactive
CC(C)NC(=O)N(C)C[C@H]1Oc2c(NS(=O)(=O)c3cn(C)cn3)cccc2C(=O)N([C@H](C)CO)C[C@@H]1C,inactive,inactive,inactive
CNC[C@H]1Oc2ccc(NC(=O)Cn3cnnn3)cc2C(=O)N([C@H](C)CO)C[C@H]1C,inactive,inactive,inactive
C[C@@H]1CN([C@@H](C)CO)C(=O)c2cc(NC(=O)CCC(F)(F)F)ccc2O[C@H]1CN(C)Cc1ccc(-c2ccccc2)cc1,inactive,active,inactive
COc1ccc(S(=O)(=O)Nc2ccc3c(c2)C(=O)N([C@@H](C)CO)C[C@@H](C)[C@H](CN(C)C(=O)c2ccccc2)OCCCC[C@@H](C)O3)cc1,inactive,inactive,inactive
C[C@@H]1CCCCO[C@@H](CN(C)Cc2ccc(Cl)c(Cl)c2)[C@@H](C)CN([C@H](C)CO)C(=O)c2cc(NC(=O)c3ccncc3)ccc2O1,inactive,inactive,inactive
COc1cccc(S(=O)(=O)N[C@@H]2CC[C@H](CC(=O)NC3CCC3)O[C@H]2CO)c1,inactive,inactive,inactive
O=C(C[C@@H]1C[C@@H]2c3cc(NS(=O)(=O)c4ccc(F)cc4)ccc3O[C@@H]2[C@@H](CO)O1)NCc1ccccc1,inactive,inactive,inactive
CN(C)c1cc(CN)ccn1,inactive,inactive,inactive
CCOC(=O)c1cc2c(=O)n(C)c(=O)n(C)c2[nH]c1=O,inactive,inactive,inactive
C[C@@H]1CN([C@H](C)CO)C(=O)c2cc(C#Cc3ccncc3)cnc2O[C@@H]1CN(C)C(=O)c1ccccc1F,inactive,inactive,inactive
CC1(C)SC2C(NC(=O)Cc3ccccc3)C(=O)N2C1C(=O)[O-].[K+] (configuration not stated),inactive,inactive,active
CO[C@H](CN(C)S(=O)(=O)c1ccc(C)cc1)[C@@H](C)CN([C@H](C)CO)S(=O)(=O)c1cccc(Cl)c1,inactive,inactive,inactive
C[C@H]1CN([C@@H](C)CO)S(=O)(=O)c2ccc(-c3cncnc3)cc2O[C@@H]1CN(C)C(=O)Cc1ccccc1,inactive,inactive,inactive
CSc1ccc2c(c1)N(CCC1CCCCN1C)c1ccccc1S2.Cl (configuration not stated),inactive,active,inactive
COc1ccc(S(=O)(=O)N(C)C[C@H]2Oc3c(NC(=O)c4ccncc4)cccc3C(=O)N([C@@H](C)CO)C[C@H]2C)cc1,inactive,active,inactive
C[C@@H]1CN([C@H](C)CO)C(=O)Cc2cc(NC(=O)Cc3cn(C)c4ccccc34)ccc2O[C@@H]1CN(C)C(=O)Nc1cccc2ccccc12,inactive,inactive,inactive
C=CC[C@@H](CC(=O)NCCO)C(=O)NC[C@H](OC(=O)[C@H](CC=C)CC(=O)OC(C)(C)C)c1ccccc1,inactive,inactive,inactive

Structure (SMILES),cytotoxicity call (HSkMC),cytotoxicity call (HepG2),growth inhibition call (S. aureus RN4220)
C[C@@H](NC(=O)N(C)C[C@H]1OCc2ccccc2-c2c(n(C)c3ccccc23)C(=O)N([C@@H](C)CO)C[C@@H]1C)c1ccccc1,inactive,inactive,inactive
CC(C)NC(=O)Nc1cccc2c1O[C@H](CN(C)Cc1ccc3c(c1)OCO3)[C@@H](C)CN([C@@H](C)CO)C2=O,inactive,inactive,inactive
CCCN(C)C[C@@H]1OCCCC[C@H](C)Oc2ccc(NC(=O)c3ccccc3)cc2C(=O)N([C@@H](C)CO)C[C@@H]1C,inactive,inactive,inactive
C[C@@H]1CN([C@@H](C)CO)C(=O)c2cc(C#Cc3ccccc3F)cnc2O[C@H]1CN(C)C(=O)Cc1cccnc1,inactive,inactive,inactive
COc1ccc(S(=O)(=O)Nc2cccc3c2O[C@H](CN(C)S(=O)(=O)c2cccs2)[C@@H](C)CN([C@H](C)CO)C3=O)cc1,inactive,inactive,inactive
C[C@@H]1CCCCO[C@@H](CN(C)Cc2ccncc2)[C@H](C)CN([C@@H](C)CO)C(=O)c2cc(NC(=O)Nc3ccc4c(c3)OCO4)ccc2O1,inactive,inactive,inactive
N=C(N)/N=C(\N)N1CCOCC1,inactive,inactive,inactive
CO[C@H]1CN(C)C(=O)c2cc(NC(=O)NC(C)C)ccc2OC[C@H](C)N(Cc2ccc(-c3ccccn3)cc2)C[C@@H]1C,inactive,active,inactive
COCC#Cc1ccc2c(c1)O[C@H](CN(C)Cc1ccccc1F)[C@H](C)CN([C@@H](C)CO)S2(=O)=O,inactive,inactive,inactive
COc1ccc(S(=O)(=O)N(C)C[C@H]2Oc3ccc(NC(=O)Cc4ccccc4)cc3CC(=O)N([C@@H](C)CO)C[C@H]2C)cc1,inactive,inactive,inactive
COC1CNC1,inactive,inactive,inactive
C[C@@H]1CN([C@H](C)CO)C(=O)Cc2cc(NC(=O)c3ccncc3)ccc2O[C@@H]1CN(C)S(=O)(=O)c1ccc(Cl)cc1,inactive,inactive,inactive
C[C@@H]1CN([C@H](C)CO)C(=O)c2cc(C#Cc3ccc(F)cc3)cnc2O[C@@H]1CN(C)Cc1ccccn1,inactive,inactive,inactive
CC(=O)OC[C@H]1O[C@@H](NC(N)=O)[C@H](OC(C)=O)[C@@H](OC(C)=O)[C@@H]1OC(C)=O,inactive,inactive,inactive
O=C(C[C@@H]1C[C@@H]2c3cc(NC(=O)Cc4ccncc4)ccc3O[C@@H]2[C@@H](CO)O1)NCCN1CCCCC1,inactive,inactive,inactive
C[C@@H]1CN([C@H](C)CO)C(=O)Cc2cc(NC(=O)Cc3ccccc3)ccc2O[C@H]1CN(C)Cc1ccc(Oc2ccccc2)cc1,inactive,inactive,inactive
CN(C)CC#Cc1ccc([C@H]2[C@@H](CO)N3C(=O)CN(C(=O)CN(C)C)C[C@H]23)cc1,inactive,inactive,inactive
CC(C)NC(=O)N(C)C[C@@H]1Oc2ccc(NS(=O)(=O)c3cn(C)cn3)cc2C(=O)N([C@@H](C)CO)C[C@@H]1C,inactive,inactive,inactive
COc1ccccc1-c1ccc2c(c1)O[C@@H](CN(C)C(=O)c1ccncc1)[C@H](C)CN([C@@H](C)CO)S2(=O)=O,inactive,inactive,inactive
C[C@@H]1CCCCO[C@@H](CN(C)Cc2ccc(C(=O)O)cc2)[C@@H](C)CN([C@@H](C)CO)C(=O)c2cc(NC(=O)CCC(F)(F)F)ccc2O1,inactive,inactive,inactive

Structure (SMILES),cytotoxicity call (HSkMC),cytotoxicity call (HepG2),growth inhibition call (S. aureus RN4220)
CC[C@@](N)(C(=O)O)c1ccccc1,inactive,inactive,inactive
C[C@H](CO)N1C[C@H](C)[C@@H](CN(C)Cc2ccc(Oc3ccccc3)cc2)Oc2ccc(NC(=O)NC3CCCCC3)cc2C1=O,inactive,active,inactive
O=C(C[C@@H]1C[C@@H]2c3cc(NS(=O)(=O)c4ccc(F)cc4)ccc3O[C@@H]2[C@@H](CO)O1)N1CCCCC1,inactive,inactive,inactive
C[C@@H]1CCCCO[C@@H](CN(C)Cc2ccc(C(=O)Nc3ccccc3N)cc2)[C@@H](C)CN([C@H](C)CO)C(=O)c2cc(NC(=O)c3ccncc3)ccc2O1,inactive,inactive,inactive
CCS(=O)(=O)N1CC[C@]2(CN(c3cnn(C)c3)C(=O)CN2C(C)=O)C1,inactive,inactive,inactive
C[C@H]1CN([C@@H](C)CO)C(=O)c2cccc(NC(=O)c3nc4ccccc4s3)c2O[C@H]1CN(C)Cc1ccc(Oc2ccccc2)cc1,inactive,active,inactive
C[C@@H]1CN([C@@H](C)CO)C(=O)Cc2cc(NC(=O)CCN3CCOCC3)ccc2O[C@@H]1CN(C)C(=O)NC1CCCCC1,inactive,inactive,inactive
C[C@H]1CN([C@@H](C)CO)C(=O)Cc2cc(NC(=O)C3CC3)ccc2O[C@@H]1CN(C)Cc1ccc(C(=O)O)cc1,inactive,inactive,inactive
COc1ccc(S(=O)(=O)N2C[C@@H](O)COC[C@H]3O[C@@H](CC(=O)NCCCN4CCOCC4)CC[C@@H]32)cc1,inactive,inactive,inactive
C[C@H](CO)N1C[C@H](C)[C@H](CN(C)S(=O)(=O)c2cn(C)cn2)Oc2c(NC(=O)C3CCCCC3)cccc2C1=O,inactive,inactive,inactive
O=C(NO)c1cccc(C(=O)N/N=C/[C@H](O)[C@@H](O)[C@H](O[C@@H]2O[C@H](CO)[C@H](O)[C@H](O)[C@H]2O)[C@H](O)CO)c1,inactive,inactive,inactive
CO[C@@H]1CN(C)C(=O)c2ccc(NC(=O)Nc3ccccc3F)cc2OC[C@@H](C)N(Cc2ccccc2C(=O)O)C[C@H]1C,inactive,inactive,inactive
CCOC(=O)c1c(C)oc(N)c1C(N)=O,inactive,inactive,inactive
COc1ccc(S(=O)(=O)N(C)C[C@H]2Oc3ccc(NC(=O)CCN4CCOCC4)cc3C(=O)N([C@H](C)CO)C[C@H]2C)cc1,inactive,inactive,inactive
Cc1ccc(S(=O)(=O)Nc2ccc3c(c2)C(=O)N([C@H](C)CO)C[C@H](C)[C@H](CN(C)C(=O)Nc2ccc4c(c2)OCO4)OCCCC[C@@H](C)O3)cc1,inactive,inactive,inactive
C[C@H](CO)N1C[C@H](C)[C@@H](CN(C)S(C)(=O)=O)Oc2ccc(NS(=O)(=O)c3ccccc3)cc2C1=O,inactive,inactive,inactive
CN(C)C(=O)C[C@@H]1CC[C@@H](NC(=O)C2CCOCC2)[C@@H](CO)O1,inactive,inactive,inactive
CCCC#Cc1cnc2c(c1)C(=O)N([C@@H](C)CO)C[C@H](C)[C@@H](CN(C)C(=O)c1ccc3c(c1)OCO3)O2,inactive,inactive,inactive
Cc1noc(C)c1S(=O)(=O)Nc1ccc2c(c1)C(=O)N([C@H](C)CO)C[C@H](C)[C@H](CN(C)C(=O)Nc1ccc(F)cc1)OCCCC[C@H](C)O2,inactive,inactive,inactive
